# According to the supplement of paper PMC4604168 (melanoma cell lines):
# The list shows a part of the results. Most values come without repeats; read them as rough.
# Columns and labels:
# Test in all cases: cell count relative to DMSO control; melanoma cells; higher = more viable cells
# Settings in all cases: library dose: standard library concentration; 72 h
# 501Mel = tested on: 501Mel
# A101D = tested on: A101D
# A2058 = tested on: A2058
# A375 = tested on: A375
# 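Also: cells treated in 1,536-well plates, then fixed and DAPI-stained, with nuclei counted from automated high-throughput microscope images.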
SMILES,cell count (501Mel),cell count (A101D),cell count (A2058),cell count (A375)
"C[As](C)SC[C@H](NC(=O)CC[C@H](N)C(=O)O)C(=O)NCC(=O)O [Darinaparsin] + Oc1nc(-c2ccc(C(F)(F)F)cc2)nc2c1CSCC2 [XAV939] (first compound 2 µM, partner dose 10 µM)",88.4%,84.9%,70.6%,79.8%
"Cn1cc(C2=C(c3cn(C4CCN(Cc5ccccn5)CC4)c4ccccc34)C(=O)NC2=O)c2ccccc21 [Enzastaurin] + O=C1NC(=O)/C(=C/c2ccc(-c3ccc(F)cc3O)o2)S1 [AS252424] (first compound 4 µM, partner dose 5 µM)",79.9%,48.3%,84.8%,124%
"Cn1cc(C2=C(c3cn(C4CCN(Cc5ccccn5)CC4)c4ccccc34)C(=O)NC2=O)c2ccccc21 [Enzastaurin] + O=c1cc(-c2cccc3c2Sc2ccccc2S3)oc(N2CCOCC2)c1 [KU55933] (first compound 4 µM, partner dose 5 µM)",77.6%,38.3%,101%,107%
"C[As](C)SC[C@H](NC(=O)CC[C@H](N)C(=O)O)C(=O)NCC(=O)O [Darinaparsin] + CCN(CC)CCCCNc1ncc2cc(-c3cc(OC)cc(OC)c3)c(NC(=O)NC(C)(C)C)nc2n1 [PD173074] (first compound 2 µM, partner dose 0.5 µM)",91.9%,111%,91.9%,95.7%
"Cn1cc(C2=C(c3cn(C4CCN(Cc5ccccn5)CC4)c4ccccc34)C(=O)NC2=O)c2ccccc21 [Enzastaurin] + COC(=O)c1sccc1S(=O)(=O)Nc1ccc(Nc2ccccc2)cc1OC [GSK0660] (first compound 4 µM, partner dose 5 µM)",95.5%,98%,89.6%,115%
"C[C@]12O[C@H](C[C@]1(O)CO)n1c3ccccc3c3c4c(c5c6ccccc6n2c5c31)CNC4=O [Lestaurtinib] + CC(C)CCN1c2nc(Nc3cc(F)c(O)c(F)c3)ncc2N(C)C(=O)C1C [BID1870] (first compound 0.02 µM, partner dose 1 µM)",46.1%,42.5%,76.8%,82.9%
"C[C@]12O[C@H](C[C@]1(O)CO)n1c3ccccc3c3c4c(c5c6ccccc6n2c5c31)CNC4=O [Lestaurtinib] + COC(=O)c1sccc1S(=O)(=O)Nc1ccc(Nc2ccccc2)cc1OC [GSK0660] (first compound 0.02 µM, partner dose 5 µM)",75.8%,63.2%,106%,102%
"C[As](C)SC[C@H](NC(=O)CC[C@H](N)C(=O)O)C(=O)NCC(=O)O [Darinaparsin] + CCc1ccc(CCOc2ccc(CC3SC(=O)NC3=O)cc2)nc1 [pioglitazone] (first compound 2 µM, partner dose 10 µM)",92.6%,84.3%,89.9%,107%
"C[C@]12O[C@H](C[C@]1(O)CO)n1c3ccccc3c3c4c(c5c6ccccc6n2c5c31)CNC4=O [Lestaurtinib] + O=C(Oc1ccc([N+](=O)[O-])cc1)N1CCC(C(O)(c2ccc3c(c2)OCO3)c2ccc3c(c2)OCO3)CC1 [JZL184] (first compound 0.02 µM, partner dose 5 µM)",46.2%,67.6%,86.7%,81.9%
"C[C@]12O[C@H](C[C@]1(O)CO)n1c3ccccc3c3c4c(c5c6ccccc6n2c5c31)CNC4=O [Lestaurtinib] + O=c1cc(-c2cccc3c2Sc2ccccc2S3)oc(N2CCOCC2)c1 [KU55933] (first compound 0.02 µM, partner dose 5 µM)",82.3%,72.8%,84%,110%
"C[As](C)SC[C@H](NC(=O)CC[C@H](N)C(=O)O)C(=O)NCC(=O)O [Darinaparsin] + COc1ccc(COc2ccc(Cc3cnc(N)nc3N)cc2OC)cc1 [GW2580] (first compound 2 µM, partner dose 5 µM)",83.6%,97.2%,83.5%,79.7%
"Cn1cc(C2=C(c3cn(C4CCN(Cc5ccccn5)CC4)c4ccccc34)C(=O)NC2=O)c2ccccc21 [Enzastaurin] + COc1ccc(COc2ccc(Cc3cnc(N)nc3N)cc2OC)cc1 [GW2580] (first compound 4 µM, partner dose 5 µM)",77.6%,86.7%,92.1%,107%
"Cn1cc(C2=C(c3cn(C4CCN(Cc5ccccn5)CC4)c4ccccc34)C(=O)NC2=O)c2ccccc21 [Enzastaurin] + Cc1cc(SCc2sc(-c3ccc(C(F)(F)F)c(F)c3)nc2C)ccc1OCC(=O)O [GW0742] (first compound 4 µM, partner dose 10 µM)",79.4%,51.4%,96.7%,110%
"C[C@]12O[C@H](C[C@]1(O)CO)n1c3ccccc3c3c4c(c5c6ccccc6n2c5c31)CNC4=O [Lestaurtinib] + O=C(O)C(=O)Nc1sc2c(c1C(=O)O)CCNC2 [TCS401] (first compound 0.02 µM, partner dose 8.33333 µM)",66.7%,86.8%,107%,133%
"N.N.[Cl][Pt][Cl] [cisplatin] + C/C(O)=C(\C#N)C(=O)Nc1cc(Br)ccc1Br [LFM-A13] (first compound 8 µM, partner dose 10 µM)",111%,80.1%,101%,107%
"N.N.[Cl][Pt][Cl] [cisplatin] + O=C(Nc1ccccc1)c1cc([N+](=O)[O-])ccc1Cl [GW9662] (first compound 8 µM, partner dose 10 µM)",70.9%,59.5%,79.8%,91.5%
"N.N.[Cl][Pt][Cl] [cisplatin] + CCCCCCCCCCCC1=C(O)C(=O)C=C(O)C1=O [Embelin] (first compound 8 µM, partner dose 6 µM)",103%,79.1%,120%,71.4%
"Cn1cc(C2=C(c3cn(C4CCN(Cc5ccccn5)CC4)c4ccccc34)C(=O)NC2=O)c2ccccc21 [Enzastaurin] + CC(C)C[C@H](NC(=O)[C@H](Cc1ccccc1)NC(=O)c1cnccn1)B(O)O [Bortezomib] (first compound 4 µM, partner dose 0.005 µM)",,13%,9.09%,71.2%
"Cn1cc(C2=C(c3cn(C4CCN(Cc5ccccn5)CC4)c4ccccc34)C(=O)NC2=O)c2ccccc21 [Enzastaurin] + C[C@]1(c2nc3c(C(N)=O)cccc3[nH]2)CCCN1 [Veliparib] (first compound 4 µM, partner dose 7 µM)",,46.4%,66.5%,94%
"C[C@]12O[C@H](C[C@]1(O)CO)n1c3ccccc3c3c4c(c5c6ccccc6n2c5c31)CNC4=O [Lestaurtinib] + CN(c1ncccc1CNc1nc(Nc2ccc3c(c2)CC(=O)N3)ncc1C(F)(F)F)S(C)(=O)=O [PF562271] (first compound 0.02 µM, partner dose 0.4 µM)",,67.2%,70%,87%
"C[C@]12O[C@H](C[C@]1(O)CO)n1c3ccccc3c3c4c(c5c6ccccc6n2c5c31)CNC4=O [Lestaurtinib] + O=C(O)c1ccc2c(c1)nc(Nc1cccc(Cl)c1)c1ccncc12 [CX4945] (first compound 0.02 µM, partner dose 2 µM)",,76.2%,77.9%,77.3%
"C[C@]12O[C@H](C[C@]1(O)CO)n1c3ccccc3c3c4c(c5c6ccccc6n2c5c31)CNC4=O [Lestaurtinib] + Clc1ccc(Nc2nnc(Cc3ccncc3)c3ccccc23)cc1 [vatalanib] (first compound 0.02 µM, partner dose 10 µM)",,62.2%,81.3%,92.8%
"Cn1cc(C2=C(c3cn(C4CCN(Cc5ccccn5)CC4)c4ccccc34)C(=O)NC2=O)c2ccccc21 [Enzastaurin] + Cn1nnc2c(C(N)=O)ncn2c1=O [temozolomide] (first compound 4 µM, partner dose 10 µM)",,90.3%,34.9%,108%
